# Results as given in PubChem BioAssay AID1768 (National Center for Advancing Translational Sciences (NCATS), 2009).
# About 620 (0.23%) of roughly 270,000 compounds were called active. The inconclusive results got no clear call from the source; some entries with a clear call stand among them for comparison. The call rests on the fitted dose curve; in most records, active means well fitted inhibition curve with a large enough effect in the polarisation, with a control signal flat (not every such curve was filed as active); inconclusive means small, poorly fitted or top-dose-only effect, or effect the other way, or a change in a side signal; inactive means no such curve, though single readings can be large or run the other way; the % refers to the polarisation. A potency beside an inconclusive call is a rough fit, not a confirmed value. A note “side channel” means that the fit belongs to a control or component signal, not to the main read-out.
# Molecular target: Menin (Homo sapiens) (UniProt O00255)
# Assay: qHTS Assay for Inhibitors Targeting the Menin-MLL Interaction in MLL Related Leukemias: Competition With Texas Red Labeled MLL-derived Mutant Peptide; on FP activity change, negative = inhibition: % of control where 0% means no effect
# Conditions: fluorescence polarization; FP activity change, negative = inhibition: at 61.6 µM (top of the series)
# Potency means the concentration at half of the fitted maximal effect; tags describe the fitted curve by direction and shape or compound fluorescence and quenching.
# Sequence of UniProt O00255 (O00255 whole entry, looked up): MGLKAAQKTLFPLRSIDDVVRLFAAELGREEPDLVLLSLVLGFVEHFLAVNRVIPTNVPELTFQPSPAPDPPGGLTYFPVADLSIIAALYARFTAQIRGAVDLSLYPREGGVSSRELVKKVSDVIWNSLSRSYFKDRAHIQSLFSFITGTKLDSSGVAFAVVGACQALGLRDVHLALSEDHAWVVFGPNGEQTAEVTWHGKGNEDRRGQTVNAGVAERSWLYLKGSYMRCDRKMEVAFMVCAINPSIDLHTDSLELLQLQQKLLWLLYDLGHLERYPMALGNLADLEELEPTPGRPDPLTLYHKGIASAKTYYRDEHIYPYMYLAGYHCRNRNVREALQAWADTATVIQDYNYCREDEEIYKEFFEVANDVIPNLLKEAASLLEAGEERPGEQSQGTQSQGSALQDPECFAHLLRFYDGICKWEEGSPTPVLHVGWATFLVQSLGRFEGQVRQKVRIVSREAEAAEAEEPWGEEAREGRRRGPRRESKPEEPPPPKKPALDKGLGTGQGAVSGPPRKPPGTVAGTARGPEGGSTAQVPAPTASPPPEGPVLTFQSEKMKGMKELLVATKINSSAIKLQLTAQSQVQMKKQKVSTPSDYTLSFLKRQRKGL
SMILES,Potency,"FP activity change, negative = inhibition"
CN(Cc1cccc(F)c1)C(=O)C(c1ccccc1)c1ccccc1,"inconclusive: 31.6 µM [fluorescent, side channel, partial curve]",
O=C(NNC1=C(C(=O)C(F)(F)F)CCC1)c1ccccc1O,"inconclusive: 25.1 µM [quencher, side channel, partial curve]",
O=C(Nc1ccc(F)cc1)c1c(Cl)nc2ccccn12,,inactive: -0.0428%
O=C(CCN1CCN(c2ccccc2)CC1)N/N=C/c1ccc(O)c(O)c1O,"inconclusive: 25.1 µM [quencher, side channel, partial curve]",
Cc1ccc(-n2c(O)c(C=Nc3ccccc3-c3n[nH]c(=S)[nH]c3=O)c3ccccc3c2=O)c(C)c1,"inconclusive: 10 µM [quencher, side channel, partial curve]",
O=S(=O)(c1cccc2nonc12)N1CCN(c2ccc(F)cc2)CC1,"inconclusive: 8.91 µM [fluorescent, side channel, full curve, poor fit]",
O=C(Cc1nnc(NC(=O)c2ccccc2)s1)N/N=C/c1cccc(O)c1,"inconclusive: 39.8 µM [fluorescent, side channel, single point]",
O=C(C[n+]1ccc(Cc2ccccc2)cc1)Nc1ccc([N+](=O)[O-])cc1Cl,,inactive: 7.78%
O=[N+]([O-])c1cc(-c2ccc(C(=S)N3CCOCC3)o2)ccc1Cl,"inconclusive: 39.8 µM [quencher, side channel, single point]",
O=S1(=O)C2CC3C=CC2(O3)C(O)C(Cc2ccccc2)N1Cc1cccc(C(F)(F)F)c1 (stereo not given),"inconclusive: 8.91 µM [quencher, side channel, partial curve]",
O=C(CN1CCN(c2ccccc2)CC1)N1CCc2ccccc21,,inactive: -16.1%
O=C(CSc1nnnn1Cc1ccccc1)NCCc1ccccc1,"inconclusive: 39.8 µM [inhibitor, partial curve]",
COc1cccc(NC(=O)CSc2nc3ccccc3c(=O)n2CCCC(=O)N2CCCC2)c1,"inconclusive: 10 µM [fluorescent, side channel, full curve, poor fit]",
c1ccc(CSc2nnc(-c3c[nH]c4ccccc34)o2)cc1,"inconclusive: 25.1 µM [quencher, side channel, single point]",
NC1=NC(=O)/C(=C\c2ccc(O)c([N+](=O)[O-])c2)S1,"inconclusive: 31.6 µM [quencher, side channel, single point]",
Cn1c(-c2ccc(CN3CCCCC3)o2)nc2ccccc21,,inactive: -16%
CNc1ccc(Br)cc(C(=O)/C=C/c2ccc3c(c2)OCO3)c1=O,"inconclusive: 28.2 µM [quencher, side channel, single point]",
c1coc(-c2ccnc3nc(-n4cccc4)nn23)c1,"inconclusive: 28.2 µM [quencher, side channel, single point]",
Cc1ccc(S(=O)(=O)/N=C2\C(=O)c3ccccc3C([O-])=C2n2cc[n+](CCC(C)C)c2)cc1,"inconclusive: 22.4 µM [inhibitor, partial curve]",
CC(c1ccccc1)C1OCC(C[N+]2(C)CCCCC2)O1 (stereo not given),,inactive: -13.4%
COc1cc(/C=N/NC2=NS(=O)(=O)c3ccccc32)ccc1OC(C)=O,"inconclusive: 39.8 µM [quencher, side channel, single point]",
O=C(N/N=C/c1ccc[nH]1)c1cc2ccccc2cc1O,"inconclusive: 20 µM [quencher, side channel, partial curve]",
C#CCn1cc(C=C2C(=O)c3ccccc3C2=O)c2ccccc21,"inconclusive: 11.2 µM [quencher, side channel, partial curve]",
Cc1ccccc1N(C(=O)Cc1cccs1)C(C(=O)NCC1CCCO1)c1cccnc1 (stereo not given),"inconclusive: 10 µM [inhibitor, full curve]",
COC(=O)c1ccc(OCCN2C3=NCCN3c3ccccc32)cc1,"inconclusive: 1 µM [inhibitor, full curve]",
CCc1cccc2c(=O)c(C(=O)NCCCOC)c[nH]c12,"inconclusive: 10 µM [inhibitor, full curve]",
O=C(C1=C[C@H](C2CCCCC2)C[C@H](OCCCCO)O1)N1CCN(Cc2ccccc2)CC1,"inconclusive: 2 µM [fluorescent, side channel, full curve]",
COc1ccc(OCCN(C)CC(=O)Nc2c(C)cccc2C)cc1,"inconclusive: 25.1 µM [fluorescent, side channel, single point]",

SMILES,Potency,"FP activity change, negative = inhibition"
COCC1CCN(C(=O)c2cc(COc3cc(C)c(Cl)c(C)c3)on2)C1 (stereo not given),"inconclusive: 11.2 µM [fluorescent, side channel, partial curve]",
COc1ccc(CCNC(=O)CSc2nnc(Cn3c(=O)sc4ccccc43)n2C)cc1OC,"inconclusive: 35.5 µM [fluorescent, side channel, single point]",
COc1cc2[nH]c(=S)nc(NCc3ccc(C)cc3)c2cc1OC,,inactive: 4.66%
CCN(CC)S(=O)(=O)c1ccc(N2CCOCC2)c(NC(=O)CC23CC4CC(CC(Br)(C4)C2)C3)c1,"inconclusive: 39.8 µM [fluorescent, side channel, single point]",
O=c1sc(/C=N/Nc2ccccc2)c(Cl)n1Cc1ccccc1,"inconclusive: 10 µM [quencher, side channel, partial curve]",
COC(=O)c1ccc(/C=C/c2c(-c3ccsc3)oc3ccc(N4CCOCC4)cc23)cc1,"inconclusive: 7.08 µM [quencher, side channel, partial curve]",
COC(=O)CN1C(=S)N(c2ccc(OC)cc2)C(=O)C1CC(=O)Nc1ccc(F)cc1 (stereo not given),"inconclusive: 12.6 µM [quencher, side channel, partial curve]",
CCOC(=O)C1=C(C)N=c2s/c(=C\c3ccc(OC(C)=O)c(OCC)c3)c(=O)n2C1/C=C/c1ccccc1 (stereo not given),"inconclusive: 1.78 µM [fluorescent, side channel, partial curve]",
Clc1cccc(-c2nc(NCC3CCCO3)c3ccccc3n2)c1 (stereo not given),"inconclusive: 7.94 µM [quencher, side channel, partial curve]",
O=C(N/N=C/c1c[nH]c2ccccc12)c1ccc([N+](=O)[O-])cc1Cl,"inconclusive: 20 µM [quencher, side channel, partial curve]",
O=C(NC(Cc1ccccc1)c1nc2ccccc2[nH]1)c1ccc(Cl)c([N+](=O)[O-])c1 (stereo not given),"inconclusive: 17.8 µM [quencher, side channel, single point]",
C[C@]1(C(=O)O)Cc2oncc2C[C@@H]1C(=O)O,"inconclusive: 28.2 µM [fluorescent, side channel, single point]",
Cc1ccc(C(=O)N/C(=C/c2ccc(Cl)cc2)C(=O)N2CCOCC2)cc1,"inconclusive: 3.98 µM [inhibitor, single point]",
NC(=O)C1CCN(C2=C(NS(=O)(=O)c3ccc(Br)cc3)C(=O)c3ccccc3C2=O)CC1,,inactive: -24.2%
O=C(C1CCCN(c2ncnc3c2nc2n3CCCCC2)C1)N1CCN(c2cccc(Cl)c2)CC1 (stereo not given),,inactive: -26%
COc1ccc(C[C@H]2CN3C(=NC[C@@H]3Cc3ccc(O)cc3)N2CCNC(=O)c2ccc(C)c(Br)c2)cc1,"inconclusive: 3.16 µM [fluorescent, side channel, full curve]",
COc1cccc(NC(=O)Cn2nnc(C(=O)Nc3cc(Cl)ccc3OC)c2N)c1,"inconclusive: 12.6 µM [inhibitor, partial curve]",
C=CCCC(=O)Nc1nc(C)c(-c2csc(Nc3cccc(OC)c3)n2)s1,"inconclusive: 14.1 µM [quencher, side channel, partial curve]",
C=CCOC(=O)C(C#N)c1nc2ccccc2nc1N1CCN(Cc2ccccc2)CC1 (stereo not given),"inconclusive: 3.55 µM [fluorescent, side channel, single point]",
CCN(CC)CCN(C(=O)CCS(=O)(=O)c1ccccc1)c1nc2cc3c(cc2s1)OCO3,"inconclusive: 35.5 µM [fluorescent, side channel, partial curve]",
Cc1ccc(NC(=O)c2ccc(Nc3ccccc3F)nc2)cc1,"inconclusive: 11.2 µM [quencher, side channel, partial curve, poor fit]",
CCOc1ccc(-n2c(=S)sc3c(=O)[nH]c(SCC(=O)N4CCC(C)CC4)nc32)cc1,"inconclusive: 25.1 µM [quencher, side channel, single point]",
C#Cc1ccc([C@@H]2C=C(C(=O)N3CCOCC3)O[C@H](OCC)[C@H]2CCCO)cc1,"inconclusive: 39.8 µM [fluorescent, side channel, single point]",
O=C(CN1CCN(S(=O)(=O)c2ccccc2)CC1)NC(=O)NCc1ccccc1,"inconclusive: 31.6 µM [fluorescent, side channel, single point]",
O=C(C1=C[C@H](c2ccc(Br)cc2)C[C@H](OCCCCO)O1)N1CCN(Cc2ccccc2)CC1,"inconclusive: 3.55 µM [fluorescent, side channel, full curve]",
Nc1c(C(O)(C(F)(F)F)C(F)(F)F)ccc2ccccc12,"inconclusive: 39.8 µM [inhibitor, single point]",
CC(C)CCn1c(SCC#N)nc2c(sc3ccccc32)c1=O,"inconclusive: 39.8 µM [fluorescent, side channel, single point]",
